# Values joined by “and” are separate entries in the source; they are usually repeats but may differ in a detail not shown here. Equal entries are not always repeated. Out of some 280,000 compounds screened, about 1,100 (0.39%) were called active. The shares of active, inactive and inconclusive entries below differ from those in the screen. Calls come from the whole dose curve; as a rule, active = well fitted inhibition curve with a large enough effect; inconclusive = small, poorly fitted or top-dose-only effect, or effect the other way; inactive = flat fitted curve, though single readings scatter. No potency is given beside an inconclusive call; the fits are too rough.
# Target: Microtubule-associated protein tau (Homo sapiens) (UniProt P10636)
# Assay: qHTS for Inhibitors of Tau Fibril Formation, Fluorescence Polarization; note: nearly all actives have a fitted effect of over 55% in size
# Conditions: K18 P301L tau heparin fibrillization, Alexa594 FP, 6 h; series mostly up to 57.7 µM; activity, negative = inhibition: at the top concentration
# Outline: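 Steps: dispense K18 P301L tau (15 uM plus 0.24 uM Alexa 594 tracer, final) in pH 7 sodium acetate; add compound; add heparin (20 uM final); incubate 6 hr, 37 C; add ThT (30 uM final); after 1 hr ambient, read FP.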
# % is set by controls: 0 for no effect and ±100 for the full control effect; potency is the fitted concentration of half-maximal effect; tags give direction and shape of the fitted curve.
# Chain of UniProt P10636 (P10636 whole entry, looked up): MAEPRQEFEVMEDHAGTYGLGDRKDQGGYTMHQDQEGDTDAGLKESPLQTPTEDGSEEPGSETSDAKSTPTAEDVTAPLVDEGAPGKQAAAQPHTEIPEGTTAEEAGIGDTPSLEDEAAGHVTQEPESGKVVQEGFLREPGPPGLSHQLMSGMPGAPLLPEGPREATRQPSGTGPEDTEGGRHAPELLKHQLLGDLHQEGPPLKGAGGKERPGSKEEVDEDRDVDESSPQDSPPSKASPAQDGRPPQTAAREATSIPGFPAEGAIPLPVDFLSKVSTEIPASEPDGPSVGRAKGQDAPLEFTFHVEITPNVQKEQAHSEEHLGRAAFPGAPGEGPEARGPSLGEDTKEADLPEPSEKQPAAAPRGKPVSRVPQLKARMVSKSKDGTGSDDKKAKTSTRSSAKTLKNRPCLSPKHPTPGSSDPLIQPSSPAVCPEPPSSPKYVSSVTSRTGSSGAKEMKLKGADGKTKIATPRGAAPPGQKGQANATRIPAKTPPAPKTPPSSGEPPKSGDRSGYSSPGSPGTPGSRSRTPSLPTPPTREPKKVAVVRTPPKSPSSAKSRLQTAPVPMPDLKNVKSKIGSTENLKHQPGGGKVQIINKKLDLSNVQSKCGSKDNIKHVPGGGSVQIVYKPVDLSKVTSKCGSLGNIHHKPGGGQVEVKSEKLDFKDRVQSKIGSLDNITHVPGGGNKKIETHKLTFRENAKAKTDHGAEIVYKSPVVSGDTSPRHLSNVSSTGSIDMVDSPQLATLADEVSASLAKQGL
Compound,Potency,"activity, negative = inhibition"
CC(C)=CCc1c(O)cc2c(c1O)C(=O)CC(c1ccc(O)cc1)O2 (stereo not drawn),"inconclusive [inhibitor, partial curve]",
COc1ccc(CC2C(=O)N(C)C(=O)N(C)C2=O)c(OC)c1,"inconclusive [inhibitor, partial curve, poor fit]",
CCc1ccc(N2C(=O)NC(=O)/C(=C\C=C\c3ccco3)C2=O)cc1,active: 12.6 µM,
O=C1NC(c2cccnc2)Nc2sc3c(c21)CCCC3 (stereo not drawn),"inconclusive [inhibitor, single point]",
CCOc1ccc2nc(NC(=O)c3cccn(Cc4ccccc4)c3=O)sc2c1,"inconclusive [inhibitor, single point]",
Cc1ccc(N2C(=O)/C(=C/c3ccc(CN(CCC#N)S(C)(=O)=O)o3)C(=O)NC2=S)cc1,"inconclusive [inhibitor, single point]",
NC(=O)Nc1ccc(C(=O)OCC(=O)Nc2ccc(Cl)cc2C(=O)c2ccccc2)cc1,"inconclusive [inhibitor, single point]",
CCOCCCNC(=O)c1c[nH]c2ccc(S(=O)(=O)N(C)c3ccc(Cl)cc3F)cc2c1=O,"inconclusive [inhibitor, partial curve]",
COc1ccc(Nc2cc(C)c3cc(NC(=O)c4ccccc4Cl)ccc3n2)cc1,"inconclusive [activator, full curve]",
O=C(Nc1ccc(Cl)cc1C(=O)c1ccccc1)c1cc(Cl)cc(Cl)c1,"inconclusive [inhibitor, single point]",
CCCOC(=O)COc1cc(C)cc2oc(=O)c3c(c12)CCC3,"inconclusive [inhibitor, single point]",
NC(=O)CSP(=O)(c1ccccc1)c1ccccc1,"inconclusive [inhibitor, partial curve]",
CC(C)c1ccc(N2C(=O)NC(=O)/C(=C/c3cnc(-c4ccccc4)nc3)C2=O)cc1,"inconclusive [inhibitor, single point]",
CCOC(=O)c1cc(CC)sc1/N=C/C1C(=O)NC(=S)NC1=O,,inactive: -9.97%
O=c1[nH]c(=O)n(Cc2ccco2)c(O)c1C=NCCN1CCOCC1,,inactive: -15.3%
Cc1cccn2c(=O)c(/C=C(\C#N)c3nc4ccccc4s3)c(Oc3ccc(F)cc3)nc12,"inconclusive [inhibitor, partial curve]",
C=CCc1cc(C=C2C(=O)NC(=O)NC2=O)cc(OC)c1OCc1ccc(C(=O)O)cc1,"inconclusive [inhibitor, partial curve]",
CCCCCn1c(N)c(C(=O)NCc2cccs2)c2nc3ccccc3nc21,"inconclusive [inhibitor, full curve]",
C[C@H](N)Cc1cnc[nH]1,inactive,
O=[N+]([O-])c1ccc(Sc2nc3ccccc3o2)c([N+](=O)[O-])c1,"inconclusive [inhibitor, partial curve, poor fit]",
CCC(C)NC(=O)c1c(N)n(Cc2ccc3c(c2)OCO3)c2nc3ccccc3nc12 (stereo not drawn),"inconclusive [inhibitor, partial curve]",

Compound,Potency,"activity, negative = inhibition"
CC(=O)Nc1cccc([As](=O)(c2cccc(NC(C)=O)c2)c2cccc(NC(C)=O)c2)c1,,inactive: -5.15%
CCC(C)N1C(=O)NC(=O)C2(Cc3cc(C)ccc3N(C)C2)C1=O (stereo not drawn),"inconclusive [inhibitor, single point]",
O=Cc1cn(Cc2cccc([N+](=O)[O-])c2)c2ccccc12,,inactive: -1.91%
O=C(Nc1ccc(OC(F)(F)F)cc1)Oc1ccccc1N1CCCCC1,"inconclusive [inhibitor, single point]",
C/C(O)=C(/C#N)C(=O)Nc1cc(Br)ccc1Br,,inactive: 2.82%
Cc1cccc(NC(=O)N[C@@H]2N=C(c3ccccc3)c3ccccc3N(CC(=O)c3ccccc3C)C2=O)c1,"inconclusive [inhibitor, single point]",
N#CC1=C(N)Oc2c(c(=O)oc3ccccc23)C1c1ccc(OC(=O)N2CCOCC2)cc1 (stereo not drawn),"inconclusive [inhibitor, single point]",
COc1ccc(CCn2c(NN=C3CCCCC3)nc3c2c(=O)[nH]c(=O)n3C)cc1,"inconclusive [inhibitor, single point]",
CC1Oc2cc3c(-c4c(O)cc(O)c5c(O)c6c(cc45)OC(C)C(C)C6=O)c(O)cc(O)c3c(O)c2C(=O)C1C (stereo not drawn),"inconclusive [inhibitor, partial curve]",
COc1ccc(C(=O)Nc2ccccc2C(=O)NC(C(=O)NCc2ccco2)C(C)C)cc1 (stereo not drawn),"inconclusive [inhibitor, partial curve]",
CC(=O)C1=C(O)C2C3c4c[nH]c5cccc(c45)CC3C(C)(C)N2C1=O (stereo not drawn),,inactive: -7.16%
CCCOC(=O)c1c(C)oc2c1cc(NS(=O)(=O)c1ccc(OCC)cc1)c1ccccc12,"inconclusive [inhibitor, partial curve]",
Cc1ccsc1/C=N/NC(=O)c1cccc(S(=O)(=O)Nc2ccccc2Cl)c1,"inconclusive [inhibitor, single point]",
CCN(CCCNS(=O)(=O)c1ccc2c(c1)oc(=O)n2C)c1cccc(C)c1,"inconclusive [activator, single point]",
COc1cc(CC(=O)OCC2=C[C@H]3[C@@H]4C(C)(C)[C@]4(OC(C)=O)[C@H](OC(=O)Cc4ccccc4)[C@@H](C)[C@]3(O)[C@@H]3C=C(C)C(=O)[C@@]3(O)C2)ccc1O,"inconclusive [activator, single point]",
O=C1NC(=O)N(CCNc2ncc(C(F)(F)F)cc2Cl)C(=O)C1Cc1ccc(Cl)cc1 (stereo not drawn),"inconclusive [inhibitor, single point]",
CN(C)CCN(C)CCc1ccc(Cl)c(Cl)c1,"inconclusive [inhibitor, partial curve, poor fit]",
O=C(Nc1ccc2c(c1)OCO2)c1cccn(Cc2cccc(F)c2)c1=O,"inconclusive [inhibitor, single point]",
Cn1cc(/C=C/c2nc3ccccc3c(=O)n2-c2ccccc2)c2ccccc21,"inconclusive [activator, single point]",
Cc1ccccc1N1C(=O)CC(=O)NC1=O,"inconclusive [inhibitor, partial curve]",
CC(C)c1ccc(Cc2cnc(NC(=O)c3ccc4c(c3)CC(c3ccccc3)OC4=O)s2)cc1 (stereo not drawn),"inconclusive [inhibitor, full curve, poor fit]",

Compound,Potency,"activity, negative = inhibition"
COc1ccc(CN2C(=O)NC(=O)/C(=C\c3ccco3)C2=O)cc1,"inconclusive [inhibitor, partial curve]",
Fc1ccccc1N1CCN(Cc2ccc3c(c2)OCO3)CC1,,inactive: -6.04%
COc1ccc(-c2oc3cc(OC)ccc3c(=O)c2O)cc1,"inconclusive [inhibitor, single point]",
COc1ccc(C(=O)Nc2ccc3c(c2)N(C)C(=O)c2ccccc2S3)cc1OC,"inconclusive [inhibitor, single point]",
COc1ccc2c(c1)CC1(CN2C)C(=O)NC(=O)N(CCc2ccccc2)C1=O (stereo not drawn),"inconclusive [inhibitor, single point]",
O=C(c1cc(-c2cccnc2)nc2ccccc12)N1CCC2(CC1)OCCO2,,inactive: -9.2%
COC(=O)/C(C)=C\CC12OC(C)(C)C3CC(C=C4C(=O)c5c(OC)c6c(c(CC=C(C)C)c5OC431)OC(C)(CCC=C(C)C)C=C6)C2=O (stereo not drawn),"inconclusive [inhibitor, partial curve]",
Nc1ccc2c(c1)Cc1ccccc1-2,"inconclusive [activator, full curve, poor fit]",
CC1=CC(=O)c2c(O)cccc2C1=O,active: 631 nM and active: 3.16 µM,
COc1ccccc1OCC#CCN1CCOCC1,,inactive: -4.96%
CCCCn1c(NC(=O)c2ccco2)c(C(=O)OCC)c2nc3ccccc3nc21,active: 15.8 µM,
CN1C(=O)NC(=O)/C(=C\C=C\c2ccccc2[N+](=O)[O-])C1=O,"inconclusive [inhibitor, partial curve]",
c1cc2c(cc1C1OC[C@@H]3C(c4ccc5c(c4)OCO5)OCC13)OCO2 (stereo partly drawn),,inactive: -4.28%
CCCCCCC[n+]1ccc(-c2cc[n+](CCCCCCC)cc2)cc1,"inconclusive [inhibitor, single point]",
C=CCN1C[C@H](C)N([C@H](c2ccc(C(=O)N(CC)CC)cc2)c2cccc(OC)c2)C[C@H]1C,"inconclusive [inhibitor, partial curve, poor fit]",
O=C(Oc1ccc(Cl)c2cccnc12)N1CCCCCC1,"inconclusive [inhibitor, single point]",
Cn1c(=O)oc2cc(S(=O)(=O)N3CCC(C(=O)Nc4ccc(OC(F)(F)F)cc4)CC3)ccc21,"inconclusive [inhibitor, full curve]",
NCCCCC(NC(CCc1ccccc1)C(=O)O)C(=O)N1CCCC1C(=O)O (stereo not drawn),"inconclusive [inhibitor, single point]",
Nc1c(C(=O)NCc2ccco2)c2nc3ccccc3nc2n1Cc1ccc(F)cc1,"inconclusive [inhibitor, single point]",
CCc1cccc(C)c1N(C(=O)CCl)C(C)COC (stereo not drawn),,inactive: -4.19%
COCCCNC(=O)c1c(NC(=O)c2ccco2)n(Cc2ccccc2)c2nc3ccccc3nc12,"inconclusive [inhibitor, single point]",
